Test results taken from article PMC4336329 (PLoS ONE, 2015).
In all, about 310,000 compounds went through this assay and about 2,200 (0.71%) showed an effect of 50% or more. The effect is printed as a negative number. Some of the results follow.

target: human ether-à-go-go-related gene (hERG) potassium channel (human, UniProt Q12809); assay: primary screen, population patch clamp on CHO cells stably expressing hERG
Sequence (Q12809 whole entry, looked up): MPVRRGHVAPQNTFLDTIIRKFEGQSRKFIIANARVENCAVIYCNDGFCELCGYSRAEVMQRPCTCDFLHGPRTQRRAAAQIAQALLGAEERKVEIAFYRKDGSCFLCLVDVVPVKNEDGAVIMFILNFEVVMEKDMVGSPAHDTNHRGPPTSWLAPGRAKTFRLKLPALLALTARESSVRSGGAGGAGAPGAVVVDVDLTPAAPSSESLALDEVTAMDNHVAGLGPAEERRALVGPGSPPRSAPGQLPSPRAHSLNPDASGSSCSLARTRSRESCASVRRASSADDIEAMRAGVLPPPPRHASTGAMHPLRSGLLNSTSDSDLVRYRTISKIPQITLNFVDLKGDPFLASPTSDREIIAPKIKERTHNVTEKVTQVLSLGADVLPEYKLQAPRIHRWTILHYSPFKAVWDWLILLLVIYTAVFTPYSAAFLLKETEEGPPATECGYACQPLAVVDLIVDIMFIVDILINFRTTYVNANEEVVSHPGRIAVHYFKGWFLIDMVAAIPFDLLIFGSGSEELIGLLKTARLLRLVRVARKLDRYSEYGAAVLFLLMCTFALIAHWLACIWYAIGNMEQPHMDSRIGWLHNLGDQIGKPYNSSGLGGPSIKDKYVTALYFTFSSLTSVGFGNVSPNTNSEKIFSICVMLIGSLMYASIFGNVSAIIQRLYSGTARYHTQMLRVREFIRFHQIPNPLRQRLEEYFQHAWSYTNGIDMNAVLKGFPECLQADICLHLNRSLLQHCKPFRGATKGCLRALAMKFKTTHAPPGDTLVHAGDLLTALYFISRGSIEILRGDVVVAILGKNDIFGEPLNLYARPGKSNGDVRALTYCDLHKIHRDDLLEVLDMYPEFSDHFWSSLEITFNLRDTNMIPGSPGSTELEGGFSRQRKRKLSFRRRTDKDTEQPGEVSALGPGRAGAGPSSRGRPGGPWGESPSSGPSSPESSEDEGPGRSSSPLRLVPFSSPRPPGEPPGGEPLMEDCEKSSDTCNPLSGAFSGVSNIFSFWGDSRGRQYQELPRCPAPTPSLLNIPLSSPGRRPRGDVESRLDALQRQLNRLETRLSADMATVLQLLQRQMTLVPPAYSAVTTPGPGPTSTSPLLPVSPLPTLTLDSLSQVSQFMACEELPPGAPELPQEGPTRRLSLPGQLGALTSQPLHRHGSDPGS

Structure (SMILES)	hERG current change (%, negative = inhibition) at 1uM [%]
O=C(O)C1CCN(c2ccc(S(=O)(=O)N3CCOCC3)cc2[N+](=O)[O-])CC1	7.61
O=C(O)c1cc(-c2cccs2)nn1-c1ccccc1	11.3
COc1ccc(-c2c[n+](CC(=O)c3ccccc3)c3n2CCCCC3)cc1.[Br-]	13.7
COC(=O)c1cc(NC(=O)C2COc3ccccc3O2)ccc1Cl (centres unmarked)	0.928
Cc1c(Cl)cccc1NC(=O)Cn1nnc(C(=O)NCc2cccs2)c1N	11.4
Cc1cc2c(c(=O)n1Cc1ccc3c(c1)OCO3)C(c1cccnc1)C(C#N)=C(N)O2 (centres unmarked)	13.4
Cc1ccc(CSc2ncnc3c2cnn3Cc2ccccc2)cc1C	-0.97
CC(=O)Nc1ccc(S(=O)(=O)c2c(N)n(CCN3CCOCC3)c3nc4ccccc4nc23)cc1	3.97
COc1ccc(Cc2nnc(NC(=O)Cn3cnc4c3c(=O)n(C)c(=O)n4C)s2)cc1OC	19.7
Cn1c(Cn2c(=O)sc3ccccc32)nnc1SCc1ccccn1	-0.264
CC(C)Cn1c(-c2nn(C)cc2Cl)n[nH]c1=S	15.2
Cc1ccc(NCc2nnc(SCC(=O)N3CCc4ccccc43)n2C)cc1	9.22
CN(CC(=O)Nc1ccccc1Br)C(=O)COc1ccc2ccccc2c1	6.32
CC(=O)CSc1nc(-c2ccccc2)c(-c2ccccc2)o1	10.1
Cl.O=C(Nc1cc(S(=O)(=O)N2CCCCC2)ccc1O)c1ccccc1NS(=O)(=O)c1ccc(F)cc1	15.2
CCOC(=O)N1CCN(C(=O)CS(=O)(=O)c2cn(Cc3ccc(F)cc3)c3ccccc23)CC1	-5.43
COc1ccc2cc(C(=O)Nc3c(C)n(C)n(-c4ccccc4)c3=O)sc(=O)c2c1OC	17.1
C=C[C@H]1CN2CC[C@H]1C[C@H]2[C@H](O)c1ccnc2ccccc12	2.5
COCC(=O)Nc1cc(C(=O)Nc2cccc(C)c2C)ccc1Cl	10.4
CCOC(=O)C1(Cc2ccccc2)CCN(Cc2cccc(OC)c2O)CC1	-31
CCOc1ccc(CCNC(=O)CSCc2ccc(C)cc2)cc1OCC	-2.98
Cc1ccc(C(=O)NCc2ccc3c(c2)OCO3)cc1S(=O)(=O)N1CCCCC1	4.53
O=[N+]([O-])c1cc2c(cc1[N+](=O)[O-])OCCOCCOCCOCCO2	-7.06
CCNc1nc(NCC)nc(Oc2ccc(OCc3ccccc3)nn2)n1	7.54
COc1ccc(C(=O)NCCCCNC(=O)c2ccc(OC)c(OC)c2)cc1OC	12.5
O=c1cc(-c2ccccc2)oc2ccccc12	13
CC(C)c1ccc(NC2CCCN(C(=O)CSc3nncn3C)C2)cc1 (centres unmarked)	11.2

Structure (SMILES)	hERG current change (%, negative = inhibition) at 1uM [%]
CC(=O)Cc1nsc(NC(=O)c2ccc(COc3ccc(C)cc3)o2)n1	9.46
O=C(COC(=O)C1CC(=O)N(c2nc(-c3ccccc3)cs2)C1)c1ccccc1 (centres unmarked)	11.6
CC(=O)Nc1ccc(-c2nnn(CC(=O)Nc3ccc4c(c3)OCO4)n2)cc1Cl	12.7
COc1ccc(N(Cc2cc3cccc(C)c3[nH]c2=O)C(=O)C2CCCO2)cc1 (centres unmarked)	6.76
COc1ccc(CCNC(=O)C2CCN(C(=O)c3ccc(F)cc3)CC2)cc1	17
Cc1cc(NC(=O)c2ccc(Br)o2)ccc1NC(=O)c1ccco1	-10.9
C=CCNC(=O)COC(=O)c1ccc(C)c(NC(=O)c2ccco2)c1	11.7
Cc1nc(=S)c2c([nH]1)-c1ccccc1CC21CCCCC1	13.2
O=C(CN1C(=O)NC2(CCc3ccccc32)C1=O)NCC(=O)Nc1ccc(F)cc1 (centres unmarked)	5.83
Cc1cc2n(n1)C(c1cn(-c3ccccc3)nc1C)Nc1ccccc1-2 (centres unmarked)	9.28
COc1ccc(C)cc1NC(=O)c1c([N+](=O)[O-])cnn1C	13.6
COc1ccccc1-n1cnnc1SCC(=O)N1CCN(S(=O)(=O)c2ccccc2)CC1	16
COC1=C/C(=C/c2c(N)n3nc(CC(=O)N4CCCC4)sc3nc2=O)C=CC1=O	15.4
O=C(CCN1C(=O)C2(OCCO2)c2ccccc21)c1ccccc1	9.82
O=C(c1cc(-c2ccc(F)cc2)on1)N1CCCc2ccccc21	0.302
COc1ccc(-c2noc(COC(=O)c3ccco3)n2)cc1OC	18.5
COc1cccc(C2C(C(=O)c3ccc(C)o3)=C(O)C(=O)N2c2cc(C)on2)c1 (centres unmarked)	5.9
CN=C(c1ccc(C)cc1)n1c(=S)nc(-c2ccc(C)cc2)n(C)c1=S	18.4
Cc1cc(C(=O)NC2CCCc3c2cnn3-c2cccc(C)c2C)no1 (centres unmarked)	1.08
CCCn1nc(C(=O)N2CCc3ccccc32)c2ccccc2c1=O	12.8
CCC(C)C(NC(=O)c1ccc(Cl)cc1)C(=O)Nc1cccnc1 (centres unmarked)	9.75
CC(C)(C)c1ccc(C(=O)Nc2ccc(C(=O)NCc3cccnc3)cc2)cc1	5.13
COc1ccccc1N1CCN(C(=O)CCC(=O)N2CCN(c3ccc(F)cc3)CC2)CC1	13.6
Cc1[nH]n(-c2ccc(Cl)cc2)c(=O)c1/C=N/n1c(C)nc2ccccc2c1=O	-6.75
Fc1ccccc1Cc1noc(CN2CCN(Cc3ccc4c(c3)OCO4)CC2)n1	-3.98
CC(=O)Nc1ccc(NC(=O)C(C)n2nc([N+](=O)[O-])c(Br)c2C)cc1 (centres unmarked)	12.5
